The values below come from article PMC7442819, “Taf14 recognizes a common motif in transcriptional machineries and facilitates their clustering by phase separation” (Nature Communications, 2020).

Amino acid sequences for entries named in this document (tags omitted). Residues count along the entry.
UniProt P53115, residues 368-390: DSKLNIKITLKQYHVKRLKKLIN
UniProt P18480, residues 771-800: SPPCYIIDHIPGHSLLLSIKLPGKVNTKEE

No constants are given. Whether binding was seen depends on the method and setting. For some of these results: In cells and extracts the contact can be indirect. Some entries that bind do so weakly or less than the wild type.

Assay [1] concerns the target Taf14ET (Taf14_(174–244)) (Saccharomyces cerevisiae) (UniProt P35189). Put plainly: condition: 1.0 mM peptide in the syringe, 0.1 mM Taf14ET in the cell; ITC; peptide at 1.0 mM in the syringe titrated into Taf14ET at 0.1 mM in the cell; 20 mM phosphate pH 7.0, 100 mM NaCl, 2 mM DTT; 25 °C; one binding site model; both purified.
In assay [2] the target is Taf14-HA (Saccharomyces cerevisiae) (UniProt P35189). Put plainly: co-IP; yeast lysate, HA beads precipitate Taf14-HA, blot for TAP; 100 mM HEPES-KOH pH 7.9, 100 mM potassium acetate, 10 mM magnesium acetate; 4 °C, 3 h.
For another assay, the target named is T1, GST-Taf14_(174–244) (Saccharomyces cerevisiae, UniProt P35189 174-244).
T1 construct: Taf14, Saccharomyces cerevisiae, ET domain, residues 174-244; also called GST-Taf14ET; GST-tagged Taf14ET; source: E. coli Rosetta, purified (Ni-NTA, eluted as GST-fused protein, SEC); not shown: 6*His-GST, N-terminal, kept
T1 sequence (looked up): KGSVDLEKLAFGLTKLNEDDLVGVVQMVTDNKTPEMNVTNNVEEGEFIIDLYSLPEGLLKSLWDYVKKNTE
Put plainly: pull-down; GST-tagged ET domain (25 μg) and binding partner (50 μg) with glutathione–Sepharose 4B beads; 25 mM Tris-HCl pH 8.0, 150 mM NaCl, 2 mM DTT; 4 °C, 3 h; SDS-PAGE; both purified.

Assay [3] addresses Taf14ET F220R/I222R (Saccharomyces cerevisiae) (UniProt P35189). As to the kind of experiment: condition: 1.0 mM peptide in the syringe, 0.1 mM Taf14ET in the cell; ITC; peptide at 1.0 mM in the syringe titrated into Taf14ET at 0.1 mM in the cell; 20 mM phosphate pH 7.0, 100 mM NaCl, 2 mM DTT; 25 °C; one binding site model; both purified.

For the molecule “Sth1EBM L1204A/V1206A/I1208A/L1210A (Sth1^M4) (from UniProt P32597 1183-1240) (domain or fragment)”, the binding result in assay [1] is listed as “no binding”.
For “Sth1^M4-TAP (from UniProt P32597 1-1359)”, in assay [2], the binding result is “binds”.
As for “Sth1^WT-TAP (from UniProt P32597 1-1359)”, the binding result in assay [2] is “binds”.
With “Sumo-fused Ino80_(368–390) (from UniProt P53115 368-390) (domain or fragment)”, in the assay with GST-Taf14_(174–244), the binding result is “binds”.
“Sumo-fused Snf5_(771–800) (from UniProt P18480 771-800) (domain or fragment)”: in the assay with GST-Taf14_(174–244), the binding entry was “binds”.
As to “bromodomain of Sth1 (Sth1_(1248–1359)) (from UniProt P32597 1248-1359) (domain or fragment)”, the binding result in the assay with GST-Taf14_(174–244) is listed as “no binding”.

B1: Sth1EBM (Sth1_(1183–1240)) (domain or fragment, Saccharomyces cerevisiae, UniProt P32597 1183-1240, looked up)
chain: EVKSSSVEIINGSESKKKKPKLTVKIKLNKTTVLENNDGKRAEEKPESKSPAKKTAAK
notes: source: E. coli Rosetta, purified (Ni-NTA, on-beads digestion, SEC)
B1: the binding result in assay [3] is recorded as “no binding”.
